According to publication PMC4336329 (PLoS ONE, 2015):
Hit rate of the full screen: of about 310,000 compounds, about 2,200 (0.71%) showed an effect of 50% or more. The effect is printed as a negative number. Some of the results follow.

target: human ether-à-go-go-related gene (hERG) potassium channel (human, UniProt Q12809); test: primary screen, population patch clamp on CHO cells stably expressing hERG
Sequence (Q12809 whole entry, looked up): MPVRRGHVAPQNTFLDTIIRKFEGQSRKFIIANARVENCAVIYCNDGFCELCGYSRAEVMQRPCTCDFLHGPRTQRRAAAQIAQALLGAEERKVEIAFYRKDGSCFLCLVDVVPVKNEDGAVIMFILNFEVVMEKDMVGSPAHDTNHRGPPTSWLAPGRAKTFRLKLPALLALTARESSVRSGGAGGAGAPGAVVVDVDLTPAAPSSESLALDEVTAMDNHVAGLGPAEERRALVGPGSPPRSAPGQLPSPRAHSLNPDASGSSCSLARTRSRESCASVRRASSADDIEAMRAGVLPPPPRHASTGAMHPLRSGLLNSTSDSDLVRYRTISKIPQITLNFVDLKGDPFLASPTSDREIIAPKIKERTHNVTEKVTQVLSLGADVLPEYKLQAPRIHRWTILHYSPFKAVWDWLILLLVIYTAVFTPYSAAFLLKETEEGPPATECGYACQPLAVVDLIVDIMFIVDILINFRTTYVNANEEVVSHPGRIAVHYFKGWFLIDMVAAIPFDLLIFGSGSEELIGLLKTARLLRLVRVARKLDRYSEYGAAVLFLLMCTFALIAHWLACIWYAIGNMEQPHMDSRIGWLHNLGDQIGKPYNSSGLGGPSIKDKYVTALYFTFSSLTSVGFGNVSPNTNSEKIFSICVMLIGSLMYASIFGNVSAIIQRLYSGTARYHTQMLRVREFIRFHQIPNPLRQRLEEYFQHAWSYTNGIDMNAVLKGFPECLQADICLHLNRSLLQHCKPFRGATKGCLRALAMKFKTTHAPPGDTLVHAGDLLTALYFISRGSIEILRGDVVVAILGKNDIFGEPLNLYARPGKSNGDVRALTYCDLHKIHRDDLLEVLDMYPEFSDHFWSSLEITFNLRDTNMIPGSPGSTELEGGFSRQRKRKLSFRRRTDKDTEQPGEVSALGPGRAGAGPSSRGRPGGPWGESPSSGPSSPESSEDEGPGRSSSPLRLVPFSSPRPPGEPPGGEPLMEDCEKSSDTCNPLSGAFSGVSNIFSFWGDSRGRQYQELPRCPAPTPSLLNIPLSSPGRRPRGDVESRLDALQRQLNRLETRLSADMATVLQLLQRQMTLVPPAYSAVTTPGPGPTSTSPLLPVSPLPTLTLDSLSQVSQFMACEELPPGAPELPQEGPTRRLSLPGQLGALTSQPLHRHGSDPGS

Row | Structure (SMILES) | hERG current change (%, negative = inhibition) at 1uM [%]
1 | CNC(=O)c1ccc(N(Cc2ccccc2C)S(C)(=O)=O)cc1 | 8.84
2 | O=C(NNC(=S)NCc1ccccc1)c1ccc2c(c1)OCO2 | 6.36
3 | Fc1cccc2sc(Nc3nc4cc5c(cc4s3)OCCO5)nc12 | 19.5
4 | CCn1c(SCC(=O)N2CCCC2=O)nnc1-c1cccs1 | 5.99
5 | S=c1[nH]nc(Cc2cccc3ccccc23)n1-c1ccccc1 | 9.48
6 | Brc1ccc2ncnc(Nc3cccc4ccccc34)c2c1 | -1.67
7 | N#Cc1c(-c2ccccc2)nc2n(-c3ccccc3)nc(C(=O)Nc3ccccc3)n2c1=O | 21.1
8 | CCCCc1ccc(S(=O)(=O)N2CCN(C(=O)c3ccco3)CC2)cc1 | 2.16
9 | Cc1ccc(C(C(=O)NC2CCCC2)N(Cc2cccs2)C(=O)c2csnn2)o1 (centres unmarked) | 3.01
10 | CCc1ccc(Nc2n[n+](-c3ccccc3)c(-c3ccc(SC)cc3)s2)cc1.[Cl-] | 3.59
11 | COc1ccc(Cc2cnc(N)s2)cc1 | 14.3
12 | CO/N=C(/CNC(=O)c1ccccc1Cl)c1ccc(Cl)cc1 | 0.0343
13 | O=[N+]([O-])c1ccc(COc2ccc(-c3[nH]ncc3-c3ccccc3)c(O)c2)cc1 | 4.58
14 | CC(=O)N1CCc2cc(S(=O)(=O)N3CCCCC3C)ccc21 (centres unmarked) | 17.6
15 | COCCC(=O)Nc1ccc2c(c1)CN(C(=O)CSC)CC2 | 8.87
16 | Cc1c(C)c2ccc(OCC(=O)N3C[C@H]4C[C@@H](C3)c3cccc(=O)n3C4)c(C)c2oc1=O | 10.1
17 | O=C(COC(=O)CCc1ccccc1)Nc1cc([N+](=O)[O-])ccc1F | 9.65
18 | O=C(C1CC(=O)N(c2ccccc2)C1)N1CCC(c2nc3ccccc3[nH]2)CC1 (centres unmarked) | 18.6
19 | COC(=O)C(C)Oc1cc(OC(C)C(=O)OC)c2c(C)c(Cl)c(=O)oc2c1 (centres unmarked) | 8.01
20 | COc1cc(C(=O)NCc2ccncc2)cc(OC)c1OC | 13
21 | O=C(NCc1cccnc1)C1c2ccccc2C(=O)N1C1CCCC1 (centres unmarked) | 14.7
22 | CCOc1ccc(Oc2ccc(S(=O)(=O)N3CCOCC3)cc2NC(=O)C2=COCCO2)cc1 | 11.6

Row | Structure (SMILES) | hERG current change (%, negative = inhibition) at 1uM [%]
23 | CCCCOC(=O)Nc1ccc(N2CCCCC2)cc1 | -4.51
24 | O=C(NCCCO)c1ccc(CSc2nc3ccccc3[nH]2)cc1 | 11.1
25 | CC1CCCC(C)N1C(=O)Cn1c(SCC(=O)Nc2ccc3c(c2)OCO3)nc2ccccc21 (centres unmarked) | 4.44
26 | COc1ccc(NC(=O)COc2ccc(N(C)S(=O)(=O)c3ccc(Cl)cc3)cc2)cc1OC | -0.0686
27 | c1ccc(Cn2cc(-c3ccccc3)cn2)cc1 | 8.29
28 | CS(=O)(=O)c1nc(S(=O)(=O)c2ccc(Cl)cc2)c(NCc2ccccn2)s1 | 11.2
29 | COC(=O)c1nn(-c2ccc(OC)cc2)c(=O)cc1Sc1ccc(C)cc1 | 1.56
30 | CC(C)N(Cc1nccn1C)C(=O)CCc1nnc(CCCc2ccccc2)o1 | 5.13
31 | O=C(CN(C(=O)c1ccccc1Cl)C1CCCCC1)Nc1ccc(Cl)c([N+](=O)[O-])c1 | 9.85
32 | CCCCc1c(C)nc2ccc(OC)cc2c1SCCC(=O)O | 4.08
33 | COc1cccc(NC(=O)N(Cc2cc3cc(C)cc(C)c3[nH]c2=O)CC2COCCO2)c1 (centres unmarked) | 32.6
34 | Cc1ccc(N(CC(=O)NC2CCCC2)C(=O)CNC(=O)c2cccs2)c(C)c1 | 8.17
35 | CN(C)c1nc(N/N=C/c2ccccc2O)nc(Nc2ccc(F)cc2)n1 | 14
36 | CCOc1ccc(-n2c(=O)c3c4c(sc3n(CC(=O)NCc3ccco3)c2=O)CCC4)cc1 | 6.98
37 | O=C(CCc1ccc(O)cc1)N/N=C/c1coc2ccccc2c1=O | 12
38 | CCN1CCN(CCCOc2ccccc2-c2ccccc2)CC1.O=C(O)C(=O)O | -16.6
39 | COc1ccccc1NC(=S)NNC(=O)c1nn(C)c(C)c1Br | 23.1
40 | Cc1cc(C(=O)COC(=O)c2ccc(O)cc2O)c(C)n1C(C)C | 7.29
41 | CC(C)C1C(C#N)=C(N)Oc2n[nH]c(C(C)(C)C)c21 (centres unmarked) | -6.48
42 | CS(=O)(=O)n1nc(-c2cccnc2)nc1NCc1ccccc1 | 20
43 | COc1ccc(N2CCN(C(=O)C3CCC(Cn4c(=S)[nH]c5ccccc5c4=O)CC3)CC2)cc1 (centres unmarked) | -14.7
44 | O=C1CC2(CCN(C(=O)c3cccc(Cl)c3)CC2)Oc2ccccc21 | -46.6

Row | Structure (SMILES) | hERG current change (%, negative = inhibition) at 1uM [%]
45 | COc1ccccc1OCCCOc1ccc(C)cc1Br | 7.82
46 | CC1(CCC(=O)N2CCCC(N3CCN(c4cccc(C(F)(F)F)c4)CC3)C2)CC1 (centres unmarked) | 6.53
47 | CCNC(=S)N1CCN(CCN=CC2=C(O)CC(c3cccs3)CC2=O)CC1 (centres unmarked) | -5.42
48 | CC1(C)CCCN(C(=O)c2ccc3c(c2NCCO)C(=O)c2ccccc2C3=O)C1 | -4.49
49 | N#CCc1nn2c3c(cnc2c1C#N)C(=O)CCC3 | 11.7
50 | CC(=O)N/C(=C\c1ccccc1)C(=O)OCC(=O)N(C)C1CCCCC1 | 12.2
51 | COc1ccc(NC(=O)C2CCN(C(=O)[C@@H]3Cc4ccccc4CN3)CC2)cc1 | 7.63
52 | Nc1c(C(=O)Nc2ccccc2)sc2ncc([N+](=O)[O-])cc12 | 11
53 | CC(C)CCN(C(=O)CNC(=O)c1ccco1)C(C(=O)NC1CCCCC1)c1cccnc1 (centres unmarked) | 9.89
54 | COc1cc(NC(=O)CN2C(=O)c3ccccc3Sc3ccc(C(=O)N4CCOCC4)cc32)cc(OC)c1OC | 2.5
55 | CCOC(=O)C1(Cc2ccc(OC)cc2)CCN(C(=O)c2cncs2)CC1 | 6.55
56 | Cc1ccc(NS(=O)(=O)c2csc(C(N)=O)c2)cc1C | 16.8
57 | O=C(CSc1nc(-c2ccccc2)nc2ccc(F)cc12)Nc1ccc(C(=O)O)cc1 | 11
58 | COC(=O)C(C)(C)ONC(=O)Nc1ccccc1Br | 13.8
59 | C=CCOc1ccc(Br)cc1CNCCCN1CCOCC1.Cl | 2.9
60 | S=C(NCc1ccccc1)Nc1cccc2cnccc12 | 5.98
61 | Cc1c(C(=O)NC(=S)Nc2cccnc2)cccc1[N+](=O)[O-] | 17.9
62 | Cc1cc(C)nc(-n2nc(C)cc2NC(=O)c2cc3ccccc3oc2=O)n1 | -3.26
63 | Cc1cccc(NC(=O)/C(=C\c2ccc([N+](=O)[O-])o2)NC(=O)c2ccc(Cl)cc2)c1 | 5.6
64 | Cc1nc2c(C(=O)N3CCC4(CC3)OCCO4)cnn2c(C)c1Cc1cccc(Cl)c1 | -6.07
65 | Cc1ccc(Nc2cccccc2=O)cc1 | 13.6
66 | Cc1ccc(N/C(N)=N/c2nc(C)cc(N3CCCCC3)n2)c(C)c1 | -79

Row | Structure (SMILES) | hERG current change (%, negative = inhibition) at 1uM [%]
67 | CCN1CCN(c2ncnc3c2nnn3Cc2ccccc2)CC1 | 5.1
68 | O=C(CCN1CCN(S(=O)(=O)c2ccc(F)cc2)CC1)Nc1ccccc1F | 8.76
69 | O=Cc1cn(Cc2ccccc2)nc1-c1cccnc1 | 9.12
70 | COc1ccc(NS(=O)(=O)c2ccc(NC(=S)NC(=O)c3cccc(F)c3)cc2)nn1 | 7.07
71 | Cc1ccccc1-n1c(SC(C)C(N)=O)nnc1-c1cccnc1 (centres unmarked) | 3.99
72 | Cc1ccc(N(C)C(=O)CCS(=O)(=O)c2cc3c(cc2Cl)NC(=O)CO3)cc1 | 6.3
73 | CC(=O)c1sc2nc(-c3ccccc3)cc(C)c2c1N | 12.7
74 | COc1ccc(Oc2nc(C)nc3c2oc2ccccc23)cc1 | 12.3
75 | CCOc1cc(CNCc2ccccc2)ccc1OCC(=O)NC1CCCCC1 | -2.06
76 | CC(C)(C)OC(=O)NC1CNNC1=O (centres unmarked) | 16.9
77 | COc1ccc(S(=O)(=O)C(C#N)c2nc3ccccc3nc2N2CCC(C)CC2)cc1 (centres unmarked) | 11.2
78 | COc1cccc(CN2CCNC(=O)C2CC(=O)NCCc2nc(C)c(C)s2)c1OC (centres unmarked) | 16.8
79 | CCCN(CCC)C(=O)c1cn(CC)c2ccc(S(=O)(=O)N3CCCCC3)cc2c1=O | 7.37
80 | CCN(c1ccccc1)S(=O)(=O)c1ccc(C(=O)Nc2ccc(C)cn2)cc1 | -9.62
81 | Cc1ccc(C2=NN(CC(=O)NCCC(C)C)C(=O)CC2)cc1 | 9.82
82 | Cc1nnc(SCC(=O)Nc2ccc(S(=O)(=O)Nc3ccc(Cl)nn3)cc2)s1 | 13
83 | Cc1cc(C(=O)Nc2cc(Br)ccc2O)on1 | 17.9
84 | CN(C)S(=O)(=O)c1ccc(NC(=O)CN2C(=O)NC(Cc3ccccc3)C2=O)cc1 (centres unmarked) | 8.7
85 | COc1cc(/C=C/CN2CCC(CO)(CC3CCCCO3)CC2)ccc1O (centres unmarked) | 12.8
86 | Cc1ccc(NC(=O)c2ccc(CSc3nnc(C)s3)cc2)c(C)c1 | 9.08
